# Where “and” joins values, the source holds several entries; their conditions need not be identical. Identical values can stand only once. The inconclusive results got no clear call from the source; some entries with a clear call stand among them for comparison. For part of these data: Where the call is inconclusive, the potency comes from a doubtful curve fit. Calls of active or inactive are those of the source. Unless noted, calls follow the shape of the dose curve; as a rule, active = well fitted curve in the direction sought with a large enough effect in the repeat runs; inconclusive = weak or mixed curves; inactive = no such curve, though single readings can be large; an effect the other way counts as inactive or inconclusive.
# How the values were obtained:
# [1] = qHTS assay for small molecule agonists of the p53 signaling pathway (AID 651631; calls by dose curve; also: nearly all actives have a fitted effect of over 15% in size; also: potency is read from the fitted curve at half-maximal effect); settings: HCT-116 p53RE-bla reporter, beta-lactamase FRET ratio, 16 h; activation: at 73.3 µM (top of the series) unless noted
# Outline: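 HCT-116 cells carrying a stable p53 response element–beta-lactamase reporter were plated, rested 5 h at 37 °C, then exposed to compound in DMSO for 16 h at 37 °C; reporter activity was read as FRET substrate fluorescence after 2 h at room temperature.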
# [2] = qHTS assay for small molecule disruptors of the mitochondrial membrane potential (AID 720635); settings: HepG2 mitochondrial membrane potential, Mito-MPS dye ratio; ratio activity, negative = MMP loss: at 83.2 µM (top of the series) unless noted; also: potency is read from the fitted curve at half-maximal effect; as to ratio activity, negative = MMP loss: % is scaled to controls: 0 for no effect and ±100 for the full control effect
# Outline: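 Mitochondrial membrane potential tracked with Mito-MPS dye, red aggregates (ex 540/em 590 nm) against green monomers (ex 490/em 535 nm). Compound treatment 1 hr at 37C, dye 30 min in HepG2.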
# [3] = target: Glucocorticoid receptor (Homo sapiens) (UniProt P04150); assay: qHTS assay to identify small molecule antagonists of the glucocorticoid receptor (GR) signaling pathway (AID 720692; active = well fitted inhibition curve with a large enough effect in the signal ratio in the repeat runs, not every such curve was filed as active; inconclusive = weak or mixed curves, or effect the other way; inactive = no such curve, though single readings can be large or run the other way; the % refers to the signal ratio; also: potency is read from the fitted curve at half-maximal effect); settings: GR-bla HeLa, beta-lactamase FRET ratio, dexamethasone-stimulated, 18 h; activity change, negative = inhibition: at 58.5 µM (top of the series) unless noted
# Outline: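 Quantitative HTS in antagonist format: HeLa cells expressing endogenous GR and a stably integrated GRE-bla reporter, stimulated with 5 nM dexamethasone (final) alongside test compounds for 18 h.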
# [4] = qHTS assay for identifying genotoxic compounds that show differential cytotoxicity against isogenic chicken DT40 cell lines with known DNA damage response pathways - Rev3 mutant cell line (AID 743014); settings: chicken DT40 Rev3-/- viability, CellTiter-Glo, 40 h; activity, negative = cytotoxicity: at 68.4 µM (top of the series) unless noted; also: nearly all actives have a fitted effect of over 55% in size; also: potency is read from the fitted curve at half-maximal effect; as to activity, negative = cytotoxicity: % is scaled to controls: 0 for no effect and ±100 for the full control effect
# [5] = qHTS assay to identify small molecule antagonists of the thyroid receptor (TR) signaling pathway - cell viability counter screen (AID 743064); settings: GH3.TRE-Luc viability, CellTiter-Fluor, 24 h; activity change, negative = cytotoxic: at 70.3 µM (top of the series) unless noted; also: potency is read from the fitted curve at half-maximal effect; nearly all actives have a fitted effect of over 50% in size
# Outline: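 GH3.TRE-Luc rat pituitary cells carrying a TRE-luciferase reporter were treated with compound plus 1 nM T3 (final) for 23.5 h at 37 °C. Viability was then read in the same wells by CellTiter-Fluor fluorescence after a further 30 min.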
# [6] = qHTS assay to identify small molecule antagonists of the thyroid receptor (TR) signaling pathway (AID 743065); also: potency is read from the fitted curve at half-maximal effect; nearly all actives have a fitted effect of over 55% in size
# Outline: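 Antagonism measured as loss of luciferase signal in GH3 cells stably carrying a TRE-luciferase reporter, co-treated with compound and T3 (1 nM final) for 23.5 h at 37 C. Viability was read in the same well by CellTiter-Fluor.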
# [7] = target: Estrogen receptor (Homo sapiens) (UniProt P03372); assay: qHTS assay to identify small molecule antagonists of the estrogen receptor alpha (ER-alpha) signaling pathway (AID 743069; active = well fitted curve in the direction sought with a large enough effect in the signal ratio in the repeat runs, not every such curve was filed as active; inconclusive = weak or mixed curves, or effect the other way; inactive = no such curve, though single readings can be large or run the other way; the % refers to the signal ratio; also: potency is read from the fitted curve at half-maximal effect); settings: HEK293 ER-alpha-UAS-bla, beta-lactamase ratio, antagonist mode; activity, negative = inhibition: at 69.4 µM (top of the series) unless noted
# Outline: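 Fluorescence intensity from a beta-lactamase FRET substrate served as the read-out. Cells: HEK293 with stably integrated ER-alpha-UAS-bla reporter. Agonist 17beta-estradiol was co-added with compounds; incubation 18 hr at 37C, substrate 2 hr at room temperature.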
# [8] = target: Estrogen receptor (Homo sapiens) (UniProt P03372); assay: qHTS assay to identify small molecule agonists of the estrogen receptor alpha (ER-alpha) signaling pathway using the BG1 cell line (AID 743079); settings: BG1Luc4E2 cells, ERE-luciferase agonist, 22 h; activation: at 70.3 µM (top of the series) unless noted; also: nearly all actives have a fitted effect of over 20% in size; also: potency is read from the fitted curve at half-maximal effect; as to activation: % is scaled to controls: 0 for no effect and ±100 for the full control effect
# [9] = qHTS assay to identify small molecule phospholipidosis (PLD) inducers (AID 1259344; active = well fitted curve in the direction sought with a large enough effect; inconclusive = small, poorly fitted or top-dose-only effect, or another doubt; inactive = no such curve, though single readings can be large; an effect the other way counts as inactive or inconclusive; also: potency is read from the fitted curve at half-maximal effect); settings: HepG2 phospholipidosis, LipidTOX Red imaging, 24 h; PLD induction: at 38.3 µM (top of the series) unless noted
# Outline: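 Accumulated phospholipid, stained red by LipidTOX during 24 h compound treatment of HepG2 cells at 37 C, is quantified from images as pit number and intensity, normalised per cell using Hoechst-stained nuclei.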
# [10] = qHTS assay for identifying genotoxic compounds that show differential cytotoxicity against isogenic chicken DT40 cell lines with known DNA damage response pathways - wild type cell line (AID 743012); settings: DT40 wild type chicken cells viability, CellTiter-Glo, 40 h; activity change, negative = cytotoxicity: at 68.4 µM (top of the series) unless noted; also: potency is read from the fitted curve at half-maximal effect; nearly all actives have a fitted effect of over 60% in size
# Outline: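 Luminescent ATP viability signal (CellTiter-Glo, 30 min RT) recorded after wild type DT40 cells were incubated with compounds for 40 h at 37 C/5% CO2.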
# [11] = qHTS assay for identifying genotoxic compounds that show differential cytotoxicity against isogenic chicken DT40 cell lines with known DNA damage response pathways - Rad54/Ku70 mutant cell line (AID 743015); settings: DT40 Rad54/Ku70 mutant viability, CellTiter-Glo, 40 h; activity change, negative = cytotoxicity: at 66.8 µM (top of the series) unless noted; also: potency is read from the fitted curve at half-maximal effect; nearly all actives have a fitted effect of over 60% in size
# [12] = qHTS assay to identify small molecule antagonists of the estrogen receptor alpha (ER-alpha) signaling pathway - cell viability counter screen (AID 743074; calls by dose curve; also: nearly all actives have a fitted effect of over 45% in size; also: potency is read from the fitted curve at half-maximal effect)
# [13] = qHTS assay to identify small molecule antagonists of the androgen receptor (AR) signaling pathway using the MDA cell line - cell viability counter screen (AID 743041; also: potency is read from the fitted curve at half-maximal effect; nearly all actives have a fitted effect of over 45% in size); settings: MDA-kb2 viability, CellTiter-Fluor, 16 h, cells co-treated with R1881 androgen agonist; viability change, negative = cytotoxic: at 70.3 µM (top of the series)
# Outline: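 Using the breast carcinoma line MDA-kb2 AR-luc, test chemicals were co-incubated with R1881 for 16 h; CellTiter-Fluor reagent, added at 15.5 h, provided a fluorescence measure of live cells.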
# [14] = qHTS assay to identify small molecule antagonists of the estrogen receptor alpha (ER-alpha) signaling pathway using the BG1 cell line (AID 743080; calls by dose curve;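 also: BG1 cells stimulated with 17beta-estradiol alongside compound; nearly all actives have a fitted effect of over 25% in size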; also: potency is read from the fitted curve at half-maximal effect); settings: BG1Luc4E2 ERE-luciferase antagonist mode, luminescence; activity change, negative = inhibition: at 70.3 µM (top of the series) unless noted
# Outline: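 After 5 days in phenol-red-free 10% charcoal-stripped FBS medium, BG1-Luc-4E2 cells were seeded, left 24 h at 37 C, co-treated with compounds and 17beta-estradiol for 21.5 h, then assayed for viability and luciferase.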
# [15] = qHTS assay to identify small molecule antagonists of the estrogen receptor alpha (ER-alpha) signaling pathway using the BG1 cell line - cell viability counter screen (AID 743081); settings: BG1Luc4E2 viability, CellTiter-Fluor, 22 h; activity change, negative = cytotoxicity: at 70.3 µM (top of the series) unless noted;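 also: compound given together with 17beta-estradiol as the ER stimulus; potency is read from the fitted curve at half-maximal effect; nearly all actives have a fitted effect of over 45% in size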
# [16] = qHTS assay to identify aromatase inhibitors - cell viability counter screen (AID 743084); settings: MCF-7 aro ERE viability, CellTiter-Fluor, 24 h; activity change, negative = cytotoxicity: at 70.3 µM (top of the series) unless noted;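 also: cells stimulated with testosterone during compound exposure; potency is read from the fitted curve at half-maximal effect; nearly all actives have a fitted effect of over 55% in size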
# [17] = target: Peroxisome proliferator-activated receptor gamma (Homo sapiens) (UniProt P37231); assay: qHTS assay to identify small molecule agonists of the peroxisome proliferator-activated receptor gamma (PPARg) signaling pathway (AID 743094; active = well fitted activation curve with a large enough effect in the signal ratio in the repeat runs, not every such curve was filed as active; inconclusive = weak or mixed curves, or effect the other way; inactive = no such curve, though single readings can be large or run the other way; the % refers to the signal ratio; also: potency is read from the fitted curve at half-maximal effect); settings: HEK293H PPARg-UAS-bla, beta-lactamase FRET ratio, 17 h; activation: at 57 µM (top of the series) unless noted
# Outline: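 Reporter activation was scored by fluorescence of cleaved LiveBLAzer B/G substrate (1 h, room temperature) in PPARg-bla HEK293H cells previously treated 17 h at 37C with DMSO-dissolved compounds.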
# [18] = qHTS assay to identify small molecule antagonists of the androgen receptor (AR) signaling pathway - cell viability counter screen (AID 743033; also: potency is read from the fitted curve at half-maximal effect; nearly all actives have a fitted effect of over 45% in size); settings: AR-bla HEK293 viability, CellTiter-Glo luminescence, 16 h; activity change, negative = cytotoxicity: at 58.5 µM (top of the series) unless noted
# [19] = tested on: thyroid hormone receptor (rat, GH3 cells); assay: qHTS assay to identify small molecule agonists of the thyroid receptor (TR) signaling pathway (AID 743066; calls by dose curve; also: % is scaled to controls: 0 for no effect and ±100 for the full control effect); settings: GH3.TRE-Luc cells, TR agonist luciferase, 24 h; activation: at 83.9 µM (top of the series) unless noted
# [20] = qHTS assay to identify small molecule that activate the aryl hydrocarbon receptor (AhR) signaling pathway - cell viability counter screen (AID 743086)
# Outline: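 Cytotoxicity counter screen: CellTiter-Fluor signal (30 min, 37 C) in 4000 HepG2 cells/well carrying the DRE-luciferase reporter, following 24 h compound exposure at 37 C.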
# Tags tell the direction and shape of the fitted curve or compound fluorescence and quenching.
# UniProt P04150, sequence (P04150 whole entry, looked up): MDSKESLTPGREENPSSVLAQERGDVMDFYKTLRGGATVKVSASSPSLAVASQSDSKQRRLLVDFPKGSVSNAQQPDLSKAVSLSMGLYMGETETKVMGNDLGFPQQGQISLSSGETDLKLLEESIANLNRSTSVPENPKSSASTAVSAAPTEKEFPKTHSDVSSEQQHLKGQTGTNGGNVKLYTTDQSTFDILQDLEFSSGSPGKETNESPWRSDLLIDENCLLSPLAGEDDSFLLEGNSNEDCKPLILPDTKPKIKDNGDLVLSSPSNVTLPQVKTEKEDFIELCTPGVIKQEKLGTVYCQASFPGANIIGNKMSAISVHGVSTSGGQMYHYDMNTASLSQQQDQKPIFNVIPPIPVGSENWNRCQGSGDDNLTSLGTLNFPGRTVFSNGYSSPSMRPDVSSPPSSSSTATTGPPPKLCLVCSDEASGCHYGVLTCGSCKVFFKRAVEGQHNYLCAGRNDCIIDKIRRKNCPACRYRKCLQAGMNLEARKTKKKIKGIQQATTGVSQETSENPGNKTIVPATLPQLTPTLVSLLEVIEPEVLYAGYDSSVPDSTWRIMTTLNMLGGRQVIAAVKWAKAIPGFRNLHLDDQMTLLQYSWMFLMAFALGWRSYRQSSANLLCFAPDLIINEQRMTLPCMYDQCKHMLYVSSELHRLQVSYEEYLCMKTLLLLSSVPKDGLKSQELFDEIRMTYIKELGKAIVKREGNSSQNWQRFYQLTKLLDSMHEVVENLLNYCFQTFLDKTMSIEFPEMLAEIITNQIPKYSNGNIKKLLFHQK
# UniProt P03372, sequence (P03372 whole entry, looked up): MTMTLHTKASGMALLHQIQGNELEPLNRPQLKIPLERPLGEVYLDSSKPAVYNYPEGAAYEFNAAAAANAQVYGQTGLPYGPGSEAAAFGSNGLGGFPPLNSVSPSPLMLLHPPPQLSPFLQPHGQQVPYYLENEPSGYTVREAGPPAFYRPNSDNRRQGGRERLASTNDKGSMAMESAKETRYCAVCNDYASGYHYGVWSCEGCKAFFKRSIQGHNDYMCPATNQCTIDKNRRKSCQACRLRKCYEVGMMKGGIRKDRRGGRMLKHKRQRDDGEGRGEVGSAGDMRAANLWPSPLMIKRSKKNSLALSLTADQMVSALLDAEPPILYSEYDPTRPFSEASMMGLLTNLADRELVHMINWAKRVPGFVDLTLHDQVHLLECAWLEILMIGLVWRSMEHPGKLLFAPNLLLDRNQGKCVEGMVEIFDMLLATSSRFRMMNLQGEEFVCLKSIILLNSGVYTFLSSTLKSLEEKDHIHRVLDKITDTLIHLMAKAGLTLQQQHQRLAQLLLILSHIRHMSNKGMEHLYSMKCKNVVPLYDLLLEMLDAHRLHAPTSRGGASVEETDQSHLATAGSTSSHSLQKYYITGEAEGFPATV
# UniProt P37231, sequence (P37231 whole entry, looked up): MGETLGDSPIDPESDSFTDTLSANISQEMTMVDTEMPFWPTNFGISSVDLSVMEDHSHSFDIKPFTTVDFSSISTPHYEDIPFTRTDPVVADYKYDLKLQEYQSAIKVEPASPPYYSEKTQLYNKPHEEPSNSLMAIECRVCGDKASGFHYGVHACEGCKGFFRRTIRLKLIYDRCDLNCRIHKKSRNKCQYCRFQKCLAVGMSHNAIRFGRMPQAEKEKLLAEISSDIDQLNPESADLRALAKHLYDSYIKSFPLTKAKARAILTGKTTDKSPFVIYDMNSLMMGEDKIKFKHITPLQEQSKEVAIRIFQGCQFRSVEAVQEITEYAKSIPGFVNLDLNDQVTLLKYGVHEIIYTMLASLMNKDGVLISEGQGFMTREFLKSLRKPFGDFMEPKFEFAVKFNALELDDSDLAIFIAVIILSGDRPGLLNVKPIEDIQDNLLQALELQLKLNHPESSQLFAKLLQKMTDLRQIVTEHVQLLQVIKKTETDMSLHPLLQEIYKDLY
smiles,measurement,setting,value
CCCCCCCCCCCCCCCC(=O)O[C@@H]1CC(C)=C(/C=C/C(C)=C/C=C/C(C)=C/C=C/C=C(C)/C=C/C=C(C)/C=C/C2=C(C)C[C@@H](OC(=O)CCCCCCCCCCCCCCC)CC2(C)C)C(C)(C)C1,Potency,[1],inconclusive: 33.5 µM [single point]
same,Potency,[2],inactive
same,Potency,[3],active: 12 µM
same,Potency,[4],inactive
same,Potency,[5],"inconclusive: 13.3 µM [rising, single point]"
same,Potency,[6],"inconclusive: 33.5 µM [inhibitor, single point]"
same,Potency,[7],"inconclusive: 8.49 µM [rising, partial curve]"
same,Potency,[8],inactive
same,Potency,[9],"inconclusive: 28.2 µM [activator, single point]"
C=C1c2c(Cl)ccc(O)c2C(O)=C2C(=O)[C@]3(O)C(O)=C(C(N)=O)C(=O)[C@@H](N(C)C)[C@@H]3[C@@H](O)[C@H]12,Potency,[1],inactive
same,"ratio activity, negative = MMP loss",[2],inconclusive: -10% [at 39.1 µM]
same,"activity change, negative = inhibition",[3],inconclusive: -27.7% [at 27 µM]
same,Potency,[10],"inconclusive: 12.7 µM [cytotoxic, partial curve, poor fit]"
same,Potency,[11],"inconclusive: 12.7 µM [cytotoxic, single point]"
same,Potency,[7],"inconclusive: 9.1 µM [rising, partial curve]"
same,Potency,[12],inactive
same,Potency,[9],inactive
CN1[C@@H]2CC[C@H]1CC(OC(c1ccccc1)c1ccccc1)C2 (some centres not stated),Potency,[2],"inconclusive: 15 µM [activator, partial curve]"
same,"ratio activity, negative = MMP loss",[2],inconclusive: 36.2% and inconclusive: 49.5%
same,"activity change, negative = inhibition",[3],inconclusive: 5.32%
same,Potency,[10],active: 5.31 µM and active: 13.3 µM and active: 6.68 µM
same,Potency,[13],"inconclusive: 35 µM [cytotoxic, partial curve, poor fit]"
same,Potency,[5],active: 16.8 µM and active: 26.6 µM and inconclusive: 11.9 µM [cytotoxic]
same,Potency,[14],inactive
same,Potency,[15],"inconclusive: 26.6 µM [cytotoxic, single point]"
same,Potency,[16],"inconclusive: 10.6 µM [cytotoxic, partial curve, poor fit]"
same,activation,[17],inconclusive: -8.72%
same,Potency,[9],"inconclusive: 28.2 µM [activator, single point] and inconclusive: 11.2 µM [activator, partial curve, poor fit] and inconclusive: 14.1 µM [activator, partial curve, poor fit]"
CCN(CC)CCOCCOC(=O)C(CC)(CC)c1ccccc1,Potency,[1],inconclusive: 0.266 µM [activator]
same,"ratio activity, negative = MMP loss",[2],inconclusive: 46.5%
same,Potency,[4],active: 1.88 µM
same,Potency,[18],"inconclusive: 0.0034 µM [cytotoxic, full curve, poor fit]"
same,Potency,[12],inactive
same,Potency,[15],"inconclusive: 10.6 µM [cytotoxic, partial curve, poor fit]"
same,Potency,[9],active: 10 µM
O=C1CSC2(CCN(CCCN3c4ccccc4Sc4ccc(Cl)cc43)CC2)N1,Potency,[2],"inconclusive: 33.5 µM [inhibitor, single point]"
same,Potency,[3],"inconclusive: 30.1 µM [cytotoxic, single point]"
same,Potency,[5],active: 10.6 µM
same,activation,[19],inconclusive: -9.32% [phenotype inactive]
same,Potency,[7],"inconclusive: 23.9 µM [rising, partial curve]"
same,Potency,[12],"inconclusive: 23.9 µM [cytotoxic, single point]"
same,Potency,[8],inconclusive: 33.5 µM [inhibitor]
same,Potency,[14],"inconclusive: 26.6 µM [falling, partial curve]"
same,Potency,[15],"inconclusive: 29.8 µM [cytotoxic, partial curve, poor fit]"
same,Potency,[16],"inconclusive: 33.5 µM [cytotoxic, single point]"
same,Potency,[20],"inconclusive: 33.5 µM [falling, single point]"
same,Potency,[17],"inconclusive: 13.4 µM [inhibitor, partial curve]"
same,Potency,[9],"inconclusive: 5.01 µM [activator, single point]"
CC(C)N1CCN(c2ccc(OC[C@H]3CO[C@](Cn4cncn4)(c4ccc(Cl)cc4Cl)O3)cc2)CC1,Potency,[1],"inconclusive: 6.39 µM [activator, partial curve, poor fit]"
same,Potency,[2],"inconclusive: 10.1 µM [activator, partial curve]"
same,Potency,[6],active: 4.52 µM
same,activation,[19],inconclusive: -8.92% [phenotype inactive] [at 39.4 µM]
same,Potency,[12],"inconclusive: 7.23 µM [cytotoxic, partial curve]"
same,Potency,[14],"inconclusive: 12.7 µM [falling, partial curve, poor fit]"
same,Potency,[15],inconclusive: 12.7 µM [cytotoxic]
same,Potency,[20],"inconclusive: 10.1 µM [falling, partial curve]"
same,Potency,[9],"inconclusive: 7.08 µM [activator, single point]"

# Reference: PubChem BioAssay (Tox21)
